# Data as given in publication PMC12136788.
# The list shows a part of the results.
# B1: 1733375_1747237_158_CDS_ENSG00000132383_ENST00000254719|human|control|control (ssRNA)
# RNA: GGGAGUUCUACAGUCCGACGAUCCCCCGUAGUAAUGGGACGGAUGUUGAUGACUUGGAGGAUGGGCUUUAUGUUUGUAUCCCCCUUCUGCAUGAUGGCCGCAAUGGCCCCCUCGCUCAGUUGGCCGACCAUGGCUCCACCGCCCAACAGAGGAUUGAGCAUCA
# B2: chr4:147379129:147379130:-_ENSMUSG00000029016_ENSMUST00000137724|mus_mus|FALSE|FALSE (ssRNA)
# RNA: GGGAGUUCUACAGUCCGACGAUCUGUCCUAGAGGAGCAUGGGCCAGGGUGGGUAUGCCUGGACCCUGUCCACUCUGGGCUAAACUGAUGGUCACACACACACACACACACACUCGAUGGACAAAUCACAACAGGACUGGCUUGCAACAGAGGAUUGAGCAUCA
# B3: chr7:54825262:54825263:-_ENSG00000132432_ENST00000352861|hu_mus|FALSE|FALSE (ssRNA)
# RNA: GGGAGUUCUACAGUCCGACGAUCCUGCCGGCUGGGCUCCACAAACUGCAUUACCUGAUCCAUGUUUGUUGGAUGGCGGAUUGAGAGCGUAGAGACACGUAGCUCAGGAGAGAACCGAGCCCAACGGAACCGGAAGCUGGCAACCAACAGAGGAUUGAGCAUCA
# B4: chr22:32879901:32879902:+_ENSG00000100225_ENST00000397426|hu_mus|hu_hu_hu_mus_False|8_28 (ssRNA)
# RNA: GGGAGUUCUACAGUCCGACGAUCCUCUUCCAUACUCAUGGCAUCCUGAAUUGACUCAGCUUCAACAUUUUGACUAGGCCCUUCCAUACUGUCAUCAGUCCAGGCAUCAGACUGGGCGGCCUGUCCUUGGAAUGAAUCAGUCCCCAACAGAGGAUUGAGCAUCA
# B5: chr2:216981417:216981418:+_ENSG00000079246_ENST00000392132|hu_hu|hu_hu_hu_mus_True|1_38 (ssRNA)
# RNA: GGGAGUUCUACAGUCCGACGAUCCUGAUACUGGUCCUUGCCAGCAAGGGCAUUAUCAGUGCCAUCUGUGCCAUAGAGGACUAACGCAAUCUCAUCUUUGUUCUCAGAAAAUACCUGUCGUUGGACAAACAUAGUCAUCACCUUCAACAGAGGAUUGAGCAUCA
# B6: chr1:220276048:220276049:+_ENSG00000067704_ENST00000302637|hu_hu|hu_hu_hu_mus_True|8_78 (ssRNA)
# RNA: GGGAGUUCUACAGUCCGACGAUCGCAAAUUGCCUGGUUGGCGGGAAUUGUCCAAGGUUGUGUGGUCCAAACUAAAACGCUAACAGGGGAUGAGGCAUCUGUAAGAGACUCCAACUUCGGAGGAGGUUUUAAGAGAGGGAAUCUCAACAGAGGAUUGAGCAUCA
# B7: chr13:55314627:55314628:+_ENSMUSG00000021488_ENSMUST00000099490|mus_hu|FALSE|FALSE (ssRNA)
# RNA: GGGAGUUCUACAGUCCGACGAUCUACUGGUACUGGAAUCUGGAUCAUCCGAAAGGGCUGUCCUUGUCUUCAGGGGCAUCUAAAUUCACUGGAUUGGAAAAGGGCAGCAGACAAUUUCUUCUGGGUAGUUCACAGGUCUGAUCCCAACAGAGGAUUGAGCAUCA
# B8: chr7:135839730:135839731:+_ENSMUSG00000042105_ENSMUST00000151237|mus_mus|FALSE|FALSE (ssRNA)
# RNA: GGGAGUUCUACAGUCCGACGAUCACGCUGAUGUUUUGAAUUACAGUGGUUCUUUUAAUAGUCACAAGACUUGACACUGCUAAUAAAUAACAAAAUCGGAAUGCUUGUCAGAGUUUUAACAGACAUAAUGUUAAACUGAGAGUCCAACAGAGGAUUGAGCAUCA
# B9: 137519644_137519764_1055_CDS_ENSG00000027697_ENST00000367739|human|control|control (ssRNA)
# RNA: GGGAGUUCUACAGUCCGACGAUCAACUGUUGCUGGAGACAACGGCUCUUCACAGACCACCUCCUUUUCUAAGGAAAAUGGCUGGUAUGACGUGAUGAGUGAUACAUAUUUUGAUUCAGGUUUUGUCUCUAAAGUAGCACUUCUCAACAGAGGAUUGAGCAUCA
# B10: 40646300_40646420_476_CDS_ENSMUSG00000019831_ENSMUST00000105509|mouse|control|control (ssRNA)
# RNA: GGGAGUUCUACAGUCCGACGAUCUUCCUCCUUAGGAUCAAGCUGUGUGACACUAACAGACAAUCGGUCCACGCGCUCUUGCAACGAGUUAACUCUGAAGGAAAAACUGUGUGCUUCAUUGAAUAAUUCUCCAAAUAUGUCUUCCAACAGAGGAUUGAGCAUCA
# B11: chr7:106826281:106826282:+_ENSG00000105856_ENST00000468410|hu_hu|motif|central (ssRNA)
# RNA: GGGAGUUCUACAGUCCGACGAUCUUCACUCUUCGAAGAAGAGGACACUGGUGGAGGGCGUGCAUAGGAAUGUAAACUUUUGCGGGUGGCUAUGAUGUGUACAGGAGAUGAUCUAUUGUAAAAUGAGCACUGCAUCAGUGGACUCAACAGAGGAUUGAGCAUCA
# B12: 44870228_44879938_508_3pUTR_ENSG00000147050_ENST00000377967|human|control|control (ssRNA)
# RNA: GGGAGUUCUACAGUCCGACGAUCAUAAGCCCAAGUCGUAAAUGAAUUUCCUUGGCUCGACAAAAGCUGGGAUCAACAUAAAGCACCUCCUGAAAUGCUUUAAUUGCCCACUGAAAUGCAUUAUAAUGGAAGUAGACCAAACCACAACAGAGGAUUGAGCAUCA
# B13: chr3:33863462:33863463:+_ENSG00000170248_ENST00000307296|hu_mus|FALSE|FALSE (ssRNA)
# RNA: GGGAGUUCUACAGUCCGACGAUCUGCAAUCUGGCUAGCUAAGGCAGCACAAUUGAACAACACACAGCUCUUUUCAUAUCCUAAGCUUGCAAGAGCCAAUUUUACAGACCCUCCAAAAAGGGAACCUUUAUCAAAAGCAUCCUUCAACAGAGGAUUGAGCAUCA
# B14: 139258311_139258431_300_CDS_ENSG00000114115_ENST00000232219|human|control|control (ssRNA)
# RNA: GGGAGUUCUACAGUCCGACGAUCCAGGUACUCCUCGAAAUUCUCGUUGACCAACAUCUUCCAGUACCCAGUGAAGUCGACUGGCAUUUCGGGGAGUGACUGGAGCCAGUUGGCCACAAGCGGGCGGGACGGCUGGAGACUGCCCAACAGAGGAUUGAGCAUCA
# B15: chrX:131284163:131284164:-_ENSMUSG00000050394_ENSMUST00000052431|mus_mus|FALSE|FALSE (ssRNA)
# RNA: GGGAGUUCUACAGUCCGACGAUCGGGACUCCUGUUUCCAACCACUGAUAGGCUGGCCAGAUGUUUACUGAUAUUGGGGCUAAGGGAAAAGCCAGCAUUUAUGUUCUUCGUGAACCUUUUCUUUCUUUGAGUGGAAACACACUUCAACAGAGGAUUGAGCAUCA
# B16: chr7:151048522:151048523:+_ENSG00000013374_ENST00000566856|hu_mus|hu_hu_hu_mus_True|88_88 (ssRNA)
# RNA: GGGAGUUCUACAGUCCGACGAUCCUGUUUCUUAUUUAUUACGAUCUUGAUAUAAUUUUCUUGAAAUCCGAAAGUUUCAGCUAUUUGACACCUCAGGUCUCUACCAGUGACAUGCAAGCGGGUCUCCAACAAGCUUUUCUUAUCCAACAGAGGAUUGAGCAUCA
# B17: 117003776_117003896_1837_3pUTR_ENSMUSG00000027351_ENSMUST00000028829|mouse|control|control (ssRNA)
# RNA: GGGAGUUCUACAGUCCGACGAUCCUCUGUGAUCUGUCCCAGAACAUGCCAUGCACUCAGGGAAACAGGCACGGCUAGCAUCUGUAAAUCACAAGAACUGAUGAGUUCUGCUUCCUCCACGCAUGGCCCCAAUGAUACCGGCAACAACAGAGGAUUGAGCAUCA
# B18: chr11:74493064:74493065:-_ENSMUSG00000020745_ENSMUST00000021091|mus_mus|FALSE|FALSE (ssRNA)
# RNA: GGGAGUUCUACAGUCCGACGAUCCUUGUUCUUAUAAUCCCAUACACGGAGGGUCUUGUCAUCAGCACAACUCAAAAUAAACUUCCCCCCAGAAUGGAACAGAACUCCACGUACCCAGUUAUCAUGACCCACAAGAGUCAUAAGCAACAGAGGAUUGAGCAUCA
# B19: chr10:33190432:33190433:-_ENSG00000150093_ENST00000302278|hu_mus|hu_hu_hu_mus_True|8_38 (ssRNA)
# RNA: GGGAGUUCUACAGUCCGACGAUCUACAUUUUCCAAACCUGCAUGUGAAUAAAACCCUGGCCACAGAGCCCCAAAACUACCCUACUGUGACUAAGAUAAUUGCUACUUGAGCUUGGUGUUGCAAAAUUUUGCACGGGAGGAUUCCAACAGAGGAUUGAGCAUCA
# B20: chr3:32335226:32335227:+_ENSMUSG00000027665_ENSMUST00000108243|mus_mus|FALSE|FALSE (ssRNA)
# RNA: GGGAGUUCUACAGUCCGACGAUCGGCCUCUCUGAACAGUUCAUGUUUGAUGGUGACGAGUGUGGCCUCACGGAGGCAUUCUAAAGUCACUAUCAUUCCAUUGGGGAGUAAACAUUCCACUAGGAUUCGUGGGGGCAUCAAGUGCAACAGAGGAUUGAGCAUCA
# B21: chr1:39494564:39494565:+_ENSG00000168653_ENST00000372967|hu_hu|hu_hu_hu_mus_True|18_28 (ssRNA)
# RNA: GGGAGUUCUACAGUCCGACGAUCAUGCAUUCGCCUCAUCGUUUUGUACCGAAGCAAGCACUCUUCGAAGUCAUCGAACUCUAUCUUGCACUCCUUUUUCGCCCGGGUAUAACCGAUUCCAUGUGCACACUCUAUCCACUCUUUCAACAGAGGAUUGAGCAUCA
# B22: chr1:130485734:130485735:-_ENSMUSG00000045382_ENSMUST00000052172|mus_mus|mus_mus_mus_hu_False|38_58 (ssRNA)
# RNA: GGGAGUUCUACAGUCCGACGAUCGAUGAAGGAGUCGAUGCUGAUCCCAAUGUAGUAAGGCAGCCAACAGGCGAAGAAAGCUAGGAUGAGGAUGACUGUCGUCUUGAGGGCCUUGCGCUUCUGGUGGCCCUUGGAGUGUGACAGCAACAGAGGAUUGAGCAUCA
# Target: T1, UNK ZnF1-3 (human, UniProt Q9C0B0 31-174)
# T1 sequence: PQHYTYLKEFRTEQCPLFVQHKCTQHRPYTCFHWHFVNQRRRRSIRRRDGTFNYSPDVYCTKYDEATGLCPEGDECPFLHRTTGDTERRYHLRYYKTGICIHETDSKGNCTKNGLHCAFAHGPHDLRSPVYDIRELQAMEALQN
# Test: nsRBNS (natural sequence RNA bind-n-seq); RBNS binding buffer (assumed for nsRBNS): 25 mM Tris pH 7.5, 150 mM KCl, 3 mM MgCl2, 0.01% Triton X-100, 500 ug/ml BSA, 20 U/ml SUPERase-In, 4 C; UNK is unkempt and MSI1 is Musashi-1; names of the RNAs are library labels; protein concentration not given here; high values mean tight binding
row,Binder,binding signal
1,B1,1 enrichment R
2,B2,1.8 enrichment R
3,B3,1.45 enrichment R
4,B4,0.956 enrichment R
5,B5,0.718 enrichment R
6,B6,1.91 enrichment R
7,B7,1.04 enrichment R
8,B8,0.744 enrichment R
9,B9,0.554 enrichment R
10,B10,1.08 enrichment R
11,B11,1.19 enrichment R
12,B12,1.05 enrichment R
13,B13,1.02 enrichment R
14,B14,0.82 enrichment R
15,B15,0.729 enrichment R
16,B16,0.998 enrichment R
17,B17,0.696 enrichment R
18,B18,1.05 enrichment R
19,B19,1.2 enrichment R
20,B20,1.15 enrichment R
21,B21,0.674 enrichment R
22,B22,1.12 enrichment R
